What was measured:
[1] = test system: rat primary glomerular mesangial cells; assay: [Ca2+]i measurement in rat primary glomerular mesangial cells; format: cell-based
[2] = target: T1, human TRPC3 (Homo sapiens, UniProt Q13507); assay: FMP assay in HEK293 cells stably expressing human TRPC3
T1 sequence (Q13507 1-921): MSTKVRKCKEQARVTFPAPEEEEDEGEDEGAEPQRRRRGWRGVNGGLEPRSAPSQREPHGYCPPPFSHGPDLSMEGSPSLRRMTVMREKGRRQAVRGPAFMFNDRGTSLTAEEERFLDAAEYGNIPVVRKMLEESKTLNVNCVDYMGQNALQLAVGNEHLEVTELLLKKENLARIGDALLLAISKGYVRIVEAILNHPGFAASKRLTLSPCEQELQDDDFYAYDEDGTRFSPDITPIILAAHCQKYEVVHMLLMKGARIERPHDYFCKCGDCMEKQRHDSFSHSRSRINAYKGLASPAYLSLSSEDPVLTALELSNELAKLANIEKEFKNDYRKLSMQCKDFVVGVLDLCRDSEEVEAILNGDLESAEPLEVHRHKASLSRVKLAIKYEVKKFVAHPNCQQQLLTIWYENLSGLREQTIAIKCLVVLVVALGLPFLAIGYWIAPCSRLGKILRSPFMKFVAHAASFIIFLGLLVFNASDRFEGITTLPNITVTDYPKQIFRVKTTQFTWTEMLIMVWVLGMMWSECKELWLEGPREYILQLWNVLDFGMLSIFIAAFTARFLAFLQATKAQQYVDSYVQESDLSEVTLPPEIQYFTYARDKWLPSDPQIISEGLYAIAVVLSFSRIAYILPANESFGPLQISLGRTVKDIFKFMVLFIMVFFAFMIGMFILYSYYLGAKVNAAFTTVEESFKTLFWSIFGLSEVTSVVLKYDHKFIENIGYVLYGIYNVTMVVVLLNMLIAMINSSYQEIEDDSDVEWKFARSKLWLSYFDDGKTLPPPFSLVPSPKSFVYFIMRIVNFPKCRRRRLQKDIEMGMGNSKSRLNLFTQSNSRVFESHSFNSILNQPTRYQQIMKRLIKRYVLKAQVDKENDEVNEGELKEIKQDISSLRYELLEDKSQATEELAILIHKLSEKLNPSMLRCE

[3] = test system: parental HEK293 cells; assay: Ca2+ assay in parental HEK293 cells; format: cell-based
[4] = target: T1, human TRPC3; assay: Fluorescence Ca2+ assay in TRPC3 cells; format: cell-based; conditions: normal extracellular solution, 2 mM Ca2+
[5] = target: T1, human TRPC3; assay: Whole-cell recordings in HEK293 cells expressing human TRPC3; format: cell-based; conditions: 10 μM; bath 0.5 mM Ca2+
[6] = test system: parental HEK293 cells; assay: FMP assay in parental HEK293 cells; format: cell-based
[7] = target: T2, TRPC4β+MOR (Mus musculus, UniProt Q9QUQ5); assay: Fluorescence Ca2+ assay in HEK293 cells coexpressing MOR and TRPC4β
T2 sequence (Q9QUQ5 1-890 isoform Q9QUQ5-2): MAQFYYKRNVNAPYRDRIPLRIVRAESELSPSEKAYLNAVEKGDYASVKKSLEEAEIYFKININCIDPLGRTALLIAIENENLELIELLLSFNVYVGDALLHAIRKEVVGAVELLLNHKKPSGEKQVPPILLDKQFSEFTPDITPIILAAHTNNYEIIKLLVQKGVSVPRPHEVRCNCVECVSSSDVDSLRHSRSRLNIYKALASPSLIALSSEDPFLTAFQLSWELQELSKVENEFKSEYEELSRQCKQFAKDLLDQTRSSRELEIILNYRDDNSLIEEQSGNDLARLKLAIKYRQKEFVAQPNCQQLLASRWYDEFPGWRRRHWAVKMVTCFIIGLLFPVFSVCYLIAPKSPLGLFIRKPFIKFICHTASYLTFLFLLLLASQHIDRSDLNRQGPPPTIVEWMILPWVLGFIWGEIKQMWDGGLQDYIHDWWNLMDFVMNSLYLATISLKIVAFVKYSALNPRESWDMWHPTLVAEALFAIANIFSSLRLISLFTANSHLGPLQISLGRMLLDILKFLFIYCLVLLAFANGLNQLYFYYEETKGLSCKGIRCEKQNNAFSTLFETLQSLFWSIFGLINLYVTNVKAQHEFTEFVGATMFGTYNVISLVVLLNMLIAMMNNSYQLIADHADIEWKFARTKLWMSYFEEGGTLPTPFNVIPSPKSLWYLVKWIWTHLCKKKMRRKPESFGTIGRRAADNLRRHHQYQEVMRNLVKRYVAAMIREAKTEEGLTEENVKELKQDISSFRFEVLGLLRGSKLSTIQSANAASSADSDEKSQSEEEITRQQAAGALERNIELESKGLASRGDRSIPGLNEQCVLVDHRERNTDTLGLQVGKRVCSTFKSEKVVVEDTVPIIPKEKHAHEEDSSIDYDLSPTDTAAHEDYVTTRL

For `NCCOB(c1ccccc1)c1ccccc1` [2-APB, 2-aminoethoxydiphenyl borate, reference compound], the “effect on 4p-evoked [Ca2+]i increases in rat glomerular mesangial cells” value ([1]; 30 μM 2-APB, 2 min pretreatment, 4p 1 μM) was “abolished”.
With `CCOC(=O)N1CCC(c2cc(O)n3nc(C)c(-c4ccc(C(F)(F)F)cc4)c3n2)CC1` [Compound 4n, Ethyl 4-(7-Hydroxy-2-methyl-3-(4-(trifluoromethyl)phenyl)-pyrazolo[1,5-a]pyrimidin-5-yl)piperidine-1-carboxylate] the “increase in potency on TRPC3 as compared to the same compound on TRPC6” value ([2]; TRPC3 versus TRPC6) was greater than 70 fold and the “increase in potency on TRPC3 as compared to other compounds” value ([2]; versus 4m, 4o, 4p) was greater than 7 fold.
`CCOC(=O)N1CCC(c2cc(O)n3nc(C)c(-c4ccc(F)cc4)c3n2)CC1` [Compound 4o, Ethyl 4-(3-(4-Fluorophenyl)-7-hydroxy-2-methylpyrazolo[1,5-a]-pyrimidin-5-yl)piperidine-1-carboxylate] was tested, and the “[Ca2+]i increase in parental HEK293 cells” value [3] was “but not compound 4o”, the “[Ca2+]i rise in TRPC3 cells” value [4] was “failed to elicit” and the TRPC3 whole-cell currents [5] was “elicited TRPC3 currents”. For the same molecule, the “membrane depolarization in parental HEK293 cells” value [6] was “did not induce membrane depolarization”, the “membrane depolarization in TRPC3 cells” value ([2]; normal extracellular solution, 2 mM Ca2+) was “failed to elicit membrane depolarization” and the “effect on DAMGO-evoked Ca2+ response in MOR/TRPC4β cells” value ([7]; DAMGO 1 μM) was “nor did it alter the DMAGO-evoked response”. The “Ca2+ response in MOR/TRPC4β cells (stimulation)” value ([7]; compound alone) was “did not elicit a Ca^2+ response”.
`Cc1nn2c(O)cc(C3CCN(C(=O)OCc4ccccc4)CC3)nc2c1-c1ccc(F)cc1` [Compound 4p, Benzyl 4-(3-(4-Fluorophenyl)-7-hydroxy-2-methylpyrazolo[1,5-a]pyrimidin-5-yl)piperidine-1-carboxylate] was tested, and the “[Ca2+]i rise in rat glomerular mesangial cells” value ([1]; 1 μM, Fluo-4 fluorescence) was “evoked marked increases in [Ca^2+]i”.
